In the BET-seq Pho4 binding data (Le et al. 2018):
Some of the results follow. The energies were worked out here from pooled read counts, against the library average; single values are noisy.

Target: T1, Pho4 (S. cerevisiae) (UniProt P07270)
T1 sequence: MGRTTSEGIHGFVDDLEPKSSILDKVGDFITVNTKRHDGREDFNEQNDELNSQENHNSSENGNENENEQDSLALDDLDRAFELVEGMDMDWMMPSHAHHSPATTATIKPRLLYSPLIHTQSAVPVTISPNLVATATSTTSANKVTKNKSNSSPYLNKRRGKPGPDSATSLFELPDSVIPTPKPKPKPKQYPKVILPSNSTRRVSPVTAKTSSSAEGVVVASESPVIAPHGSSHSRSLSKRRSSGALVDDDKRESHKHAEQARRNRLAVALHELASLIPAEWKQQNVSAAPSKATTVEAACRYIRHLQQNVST
Assay: relative binding free energy (BET-seq); higher = weaker binding
Conditions: reference: library average

| Sequence | relative binding free energy [kcal/mol] |
| --- | --- |
| CTGGTCACGTGATATA | 0.27 |
| AAAGTCACGTGTGATT | 0.17 |
| TAGGTCACGTGTAGTG | 0.14 |
| GGGGGCACGTGAATCA | 0.23 |
| GTTTTCACGTGGTCAT | 0.21 |
| GAGAGCACGTGTTGTT | -0.01 |
| TTAATCACGTGATTGA | 0.29 |
| ATTGCCACGTGGTGCG | -0.12 |
| GTTTGCACGTGAAGCT | 0.23 |
| GAATTCACGTGTAGTG | 0.18 |
| TGGCGCACGTGCGGGG | -0.07 |
| GGTTGCACGTGCAGTT | -0.01 |
| GTAAGCACGTGGGGCG | -0.17 |
| TTGCACACGTGGATTT | 0.18 |
| TATCGCACGTGTAAGT | 0.02 |
| TGAGGCACGTGGGAGA | -0.13 |
| GTGGTCACGTGAATGA | 0.39 |
| TGGACCACGTGTGGAG | -0.01 |
| GGGGCCACGTGGTCCG | -0.03 |
| GTGTCCACGTGGGAGG | 0 |
| TTATTCACGTGAGGCG | 0.38 |
| TTGTACACGTGGAATA | 0.22 |
| AGATGCACGTGCGGGT | -0.08 |
| GTTAACACGTGCTTAT | 0.13 |
| GCGTCCACGTGTTGTG | 0.01 |

| Sequence | relative binding free energy [kcal/mol] |
| --- | --- |
| AGGGGCACGTGAATGA | 0.11 |
| TGGGTCACGTGGCCTA | 0.03 |
| ATAGGCACGTGGAATT | 0.04 |
| GTATGCACGTGAGGTA | 0.12 |
| TTTGTCACGTGTTGCA | 0.04 |
| TTTAGCACGTGACTTG | 0.07 |
| GGTTGCACGTGTTGAG | 0.08 |
| GATGTCACGTGTTAGG | 0.23 |
| AGATGCACGTGGTCAT | -0.14 |
| GGGAGCACGTGGATAG | -0.14 |
| CAGAGCACGTGGGGAT | -0.1 |
| CTGTTCACGTGGCTGA | 0.28 |
| GGGGACACGTGGCTTG | 0.06 |
| TATTGCACGTGAGTCG | 0.16 |
| TGGTTCACGTGCATCG | 0.29 |
| TGCTTCACGTGGGGAG | 0.15 |
| GTAGTCACGTGTACGT | 0.26 |
| TGGTCCACGTGTAGGA | 0.09 |
| TAATTCACGTGCAGTG | 0.18 |
| GGAAGCACGTGAGGTT | 0.2 |
| TGTACCACGTGGAGGG | -0.16 |
| AGGTGCACGTGAATTG | 0.31 |
| AGAATCACGTGGTGGA | 0.16 |
| GTGGGCACGTGAGAAT | 0.3 |
| TGCGTCACGTGCGCGG | -0.14 |

| Sequence | relative binding free energy [kcal/mol] |
| --- | --- |
| AGTAACACGTGGCGTA | 0.01 |
| ATTTACACGTGGTGCA | 0 |
| TATGACACGTGAGGTT | 0.17 |
| GGGGACACGTGTTGAG | 0.17 |
| GGCTCCACGTGGGTGG | -0.11 |
| AATTGCACGTGTTTTG | -0.06 |
| CTGATCACGTGGTGAG | 0.04 |
| GGAGACACGTGTAGGA | 0.1 |
| GGGGTCACGTGAGGAA | 0.43 |
| GTATACACGTGGGGGA | -0.09 |
| ATGTGCACGTGGTGTG | -0.18 |
| GGGTTCACGTGGACAG | 0.34 |
| GTAGTCACGTGATATG | 0.23 |
| AGTTTCACGTGCTTGA | 0.17 |
| TGGGGCACGTGTCGGA | -0.08 |
| TATGACACGTGTAAGT | 0.1 |
| AAAGACACGTGGGGGT | -0.16 |
| TATCTCACGTGGCTTG | 0.21 |
| GTTGGCACGTGATAAG | 0.06 |
| AATTACACGTGTTTGT | 0.01 |
| GGGTGCACGTGAGCCT | 0.34 |
| TAGGCCACGTGCTGGG | -0.18 |
| TAGCGCACGTGACTGG | 0.13 |
| AAAAGCACGTGTTTTT | -0.19 |
| GTTGGCACGTGTCTGA | 0.11 |

| Sequence | relative binding free energy [kcal/mol] |
| --- | --- |
| TTAGTCACGTGCGTCT | 0.12 |
| GTTTACACGTGGGCTT | 0.05 |
| TACTTCACGTGGTTAT | 0.23 |
| TCGCTCACGTGGGTGG | 0.08 |
| AGACGCACGTGGGGTG | -0.21 |
| TTAATCACGTGGAGTT | 0.19 |
| AGAAGCACGTGGTTGT | -0.18 |
| AGGTGCACGTGAAAGT | 0.21 |
| AAGATCACGTGAGAGG | 0.36 |
| GTGTTCACGTGGAGCG | 0.25 |
| TTGGACACGTGTGAAT | 0.19 |
| GTCAGCACGTGTGGCG | 0.07 |
| GTGGTCACGTGACTGG | 0.13 |
| TGGAGCACGTGGCTGT | -0.11 |
| GTTAACACGTGTCATT | -0.01 |
| TATAACACGTGGGTTC | -0.05 |
| AGGCGCACGTGTTTTG | -0.18 |
| CGGTTCACGTGGCTAG | 0.32 |
| GTGAACACGTGAGTTA | 0.23 |
| TGTTTCACGTGCGGGG | 0.2 |
| TGGATCACGTGAATTA | 0.29 |
| TAATACACGTGGGGAG | -0.14 |
| CGCTTCACGTGCGGGG | 0.21 |
| TCGAACACGTGATGGG | 0.12 |
| GCTGACACGTGGTAGG | 0.11 |

| Sequence | relative binding free energy [kcal/mol] |
| --- | --- |
| AGTCGCACGTGCTGGG | -0.2 |
| GGTTGCACGTGAAGAG | 0.16 |
| TGGTACACGTGTTTAA | 0.02 |
| CATTGCACGTGGGGTA | -0.3 |
| GTCAGCACGTGTGGTC | 0.14 |
| GATCGCACGTGTCGGG | 0.07 |
| CATGGCACGTGGGTAG | -0.29 |
| TGTTACACGTGGAGAG | -0.01 |
| CAGTGCACGTGGGGTC | -0.13 |
| AATTGCACGTGGAGTG | 0.02 |
| AGTGGCACGTGTCTAT | -0.02 |
| TACGGCACGTGTTGGA | 0.02 |
| GGGTTCACGTGGGTAC | 0.14 |
| CGTATCACGTGGGGCA | 0.02 |
| CTTTTCACGTGATGAT | 0.22 |
| GATGCCACGTGGTCGG | -0.02 |
| ATGCTCACGTGAGGTA | 0.24 |
| AGGTACACGTGTGGGG | 0.03 |
| TTAAACACGTGCGGTG | -0.1 |
| GTGATCACGTGTCGTG | 0.09 |
| GATTTCACGTGGTATT | 0.1 |
| TCTGTCACGTGTTACG | 0.14 |
| TTTAGCACGTGCGGGA | -0.07 |
| CAAGGCACGTGGGTGC | -0.1 |
| GAAGGCACGTGATGAG | 0.03 |

| Sequence | relative binding free energy [kcal/mol] |
| --- | --- |
| TTTAGCACGTGGCCTT | -0.21 |
| GCGGACACGTGAGGGC | 0.44 |
| ATGGTCACGTGAAGAT | 0.31 |
| TTTTTCACGTGAAACG | 0.45 |
| ACGGGCACGTGCGGGA | -0.09 |
| ATTAACACGTGGTGGA | -0.09 |
| TTAGACACGTGTAAGA | 0.2 |
| GGTTTCACGTGCTGTG | 0.29 |
| ATGGACACGTGTCGGT | 0 |
| AGTAGCACGTGTTGCG | -0.07 |
| ATTTACACGTGTGCTG | 0.08 |
| GCAGTCACGTGGGTTA | 0 |
| AGACTCACGTGGTTTA | 0.31 |
| ATATGCACGTGGCGCG | -0.12 |
| TTAAGCACGTGGGTCA | -0.23 |
| TGTGACACGTGAGGGG | 0.17 |
| TATGGCACGTGAGCAG | 0.11 |
| TGTTACACGTGAGCAG | 0.25 |
| AGGCTCACGTGTGGAT | 0.2 |
| GGGCTCACGTGCGTAG | 0.26 |
| ACAGGCACGTGTGGGC | -0.14 |
